Results on 43 compounds are retold here after ChEMBL document CHEMBL4888484, “Replenishing the malaria drug discovery pipeline: Screening and hit evaluation of the MMV Hit Generation Library 1 (HGL1) against asexual blood stage Plasmodium falciparum ,using a nano luciferase reporter read-out” (2022).

In all, about 150,000 compounds went through this assay and about 540 (0.36%) showed an effect of 50% or more. This is one part of the list.

The assay concerns Plasmodium falciparum. The experiment in a line: Primary screen in NF54 nanoGlo assay, in single point, at 2uM, 72h; a lower Z score goes with more inhibition. The conditions noted are these: timepoint 72 hour. The assay is classed as functional, Erythrocyte.
On to `Cc1nc[nH]c1-c1cc(-c2ccc(O)cc2F)nc(N)c1C#N`, for which the “% Inhibition” value is -13% and the Z score is listed as 1.89.
Consider `O=C(OCc1ccccc1)N1CCC(S(=O)(=O)NC2CCCN(c3ncccn3)C2)C1` (stereo unspecified), for which the “% Inhibition” value is recorded as -12% and the Z score is reported as 1.25.
Taken in the same sequence, the figures for `Cc1c(CN2CC[C@H](CNC(=O)C3CCC3)C2)[nH]c2ccc(F)cc12` were -8% and 1.75.
The like results for `CCCN1C[C@@H]2Oc3cc(-c4cccnc4)ccc3S(=O)(=O)NC[C@H](O)CN(C)[C@@H]2C1` were, in that order, -6% and 0.72.
The like results for `CC(=O)c1ccc(-c2ccc3nc(-c4ccc(C)cc4)c(CCC(=O)NC4CC4)n3c2)cc1` were, in that order, 8% and -1.23.
As for `Cc1ccc(CN2CC(Cc3ccccc3Cl)C2)o1`, the “% Inhibition” value is recorded as -14% and the Z score was 1.41.
The like results for `O=C(Nc1ccc(-n2cnnn2)cc1)N1CC[C@@H]1Cc1ccccc1` were, in that order, -5% and 1.07.
The like results for `COc1cccc([C@@H](C)NC(=O)CCc2c(C)nc(O)nc2C)c1` were, in that order, -21% and 2.03.
The like results for `CC(C)(C)CN(CCCO)C(=O)NCCCn1ccnc1` were, in that order, -12% and 1.17.
Regarding `Cc1ccc(C(=O)N2[C@H](C(=O)NCc3ccccn3)COC23CCN(C(=O)c2cccs2)CC3)cc1`, the “% Inhibition” value is -16% and the Z score was found to be 1.88.
Taken in the same sequence, the figures for `C[C@H]1OCC[C@H]1NC(=O)c1c[nH]nc1-c1cccnc1` were 1% and -0.21.
Taken in the same sequence, the figures for `O=S(=O)(CCc1ccccc1)N1CCC(n2nccn2)CC1` were -3% and 0.29.
Regarding `O=c1sc2ccccc2n1COc1ccc(Cl)cc1`, the “% Inhibition” value came to 6% and the Z score is listed as -1.09.
The like results for `CC(C)c1ccc(C(=O)N2CCC([C@H]3CCNC3)CC2)cc1` were, in that order, 0% and -0.02.
Taken in the same sequence, the figures for `CO[C@@H](C(=O)N1CC[S+]([O-])CC1)c1ccccc1` were -12% and 2.27.
The like results for `Cc1cscc1NC(=O)N[C@@H](C)Cc1cccnc1` were, in that order, 5% and -0.5.
Turning to `CN(Cc1ccc(F)cc1)[C@H]1CCN(CC(F)(F)F)C1=O`, the “% Inhibition” value came to 11% and the Z score is on record as -1.47.
Regarding `CC[C@H](Oc1ccc(F)cc1)C(=O)N(Cc1cccc(F)c1)c1ccccn1`, the “% Inhibition” value came out at 9% and the Z score is listed as -1.52.
Taken in the same sequence, the figures for `CC(C)(C)NS(=O)(=O)Nc1ccccc1` were -7% and 0.96.
Taken in the same sequence, the figures for `CC(CN1CCOCC1)N1CCN(C(C#N)c2ccccc2)CC1` (stereo unspecified) were -8% and 0.73.
The like results for `CN(CCn1cccn1)CCn1ccc2ccccc21` were, in that order, -15% and 2.15.
With `CC(C)Cc1nc(CNC(=O)c2csc(N)n2)no1`, the “% Inhibition” value was -11% and the Z score is given as 1.8.
Taken in the same sequence, the figures for `CC(C)C(=O)N1CCc2c(c(-c3nncn3C(C)C)nn2C)C1` were -12% and 2.21.
In the case of `O=C(C1CCC1(F)F)N1CCCCCC(Nc2ccc(C(F)(F)F)nn2)C1` (stereo unspecified), the “% Inhibition” value turned out to be 9% and the Z score is recorded as -1.08.
The like results for `CCC1(CC)CN(C(=O)NCc2ccn(C(C)C)n2)C1` were, in that order, 2% and -0.4.
In the case of `CC(=O)[C@@H]1C[C@H](c2nc(-c3cccc(CN4CCCC4=O)c3)no2)C1(C)C`, the “% Inhibition” value was 6% and the Z score is given as -0.7.
Take `CC1(O)CN(C(=O)Nc2ccccn2)C1`: the “% Inhibition” value amounted to 2% and the Z score was -0.27.
The like results for `Cc1cc(C(=O)N[C@@H]2CN(c3ncccn3)C[C@H]2CO)c(C)o1` were, in that order, 1% and -0.13.
Turning to `Cc1[nH]cnc1CNC(=O)[C@H]1CC12CCCCC2`, the “% Inhibition” value is on record as -6% and the Z score turned out to be 1.24.
The like results for `CN(CCc1nc(-c2ccccc2)no1)Cc1ccccc1Cl` were, in that order, 3% and -0.42.
The like results for `O=C(Nc1cccnc1)N1CCN(Cc2ccc3c(c2)OCO3)CC1` were, in that order, -12% and 1.89.
Taken in the same sequence, the figures for `Cc1cc(CCNC(=O)c2ccc(Cl)s2)on1` were -13% and 2.07.
`O=C(c1ccc2ncsc2c1)N1CCC[C@H]1c1nc2ccccc2s1`: the “% Inhibition” value was found to be 19% and the Z score is -2.16.
Taken in the same sequence, the figures for `CCONC(=O)C(=O)Nc1c(F)c(F)c(F)c(F)c1F` were -10% and 1.22.
Taken in the same sequence, the figures for `Cc1c(F)cccc1NC(=O)N(C)CC1CCOCC1` were -3% and 0.51.
Taken in the same sequence, the figures for `C#CCCC1(CCC(=O)N2CCCC[C@@H]2COC)N=N1` were -11% and 1.33.
Turning to `Cc1c(C(=O)NCc2nc(C(N)=O)no2)ccn1C`, the “% Inhibition” value is on record as 6% and the Z score is on record as -1.1.
The like results for `Cc1cc(C(=O)Nc2ccc(N3CCCC3=O)cn2)nn1-c1ccc(F)cc1` were, in that order, -3% and 0.37.
With `COc1ccccc1[C@H](C)NC(=O)c1cccn1C1CCNCC1`, the “% Inhibition” value is on record as -4% and the Z score came out at 0.62.
The like results for `CN(C)C[C@H]1O[C@@H](CO)[C@@H](O)[C@@H]1N(C)Cc1ccccc1` were, in that order, -14% and 1.75.
The like results for `CCCOc1ccc2c(c1)OCC(C(=O)N1CCN(CCOC(C)C)CC1)=C2` were, in that order, -4% and 0.59.
Taken in the same sequence, the figures for `CCC(C)C(=O)NCCc1ccnc(NC(=O)C(C)CC)c1` (stereo unspecified) were 7% and -1.3.
On to `COCCn1ccnc1-c1nc2cc(C(C)(C)C)ccc2[nH]1`, for which the “% Inhibition” value is recorded as -14% and the Z score came out at 1.88.
